The whole screen tested about 44,000 compounds, of which about 340 (0.77%) were called active. About 5% were inconclusive and are not listed. Calls follow the shape of the dose curve; as a rule, active = well fitted inhibition curve with a large enough effect; inconclusive = small, poorly fitted or top-dose-only effect; inactive = flat fitted curve, though single readings scatter. The list shows a part of the results.
Experiment: Acumen qHTS Assay for Inhibitors of the mTORC1 Signaling Pathway in MEF (Tsc2-/-, p53-/-) Cells: Sytravon;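 also: plate controls were DMSO for no effect and rapamycin for full effect; nearly all actives have a fitted effect of over 50% in size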
Details: phospho-rpS6 immunofluorescence/PI, 24 h; series mostly up to 38.3 µM; activity change, negative = inhibition: at the top concentration
Procedure, shortened: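 Cell-based qHTS: Tsc2-/- p53-/- MEF, 24 h cpd, 37 °C; fix/perm, anti-phospho-S6 Alexa-488 + PI; Acumen 488 nm scan; pS6/PI ratio, % positive cells; rapamycin 7.5 nM = inhibition ref; PI count = viability.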

Activity change, negative = inhibition, inactive:
CCOC(=O)c1noc2ncnc(N(CCC(=O)OC)c3ccccc3)c12 -3.14%
CCOC(=O)c1noc2ncnc(Nc3ccc(C)c(F)c3)c12 -3.89%
Cc1ccc(-c2cc(N)n3nc(-c4ccc(C)cc4)cc3n2)cc1 2.67%
COc1ccc(OC)c(C2CC(=O)c3c([nH]c(C(=O)OC4CCC(C)CC4)c3C)C2)c1 (stereo not given) -9.43%
CN1CCN(CCCNC(=O)Cn2c(-c3cccs3)cc3ccccc32)CC1 -8.18%
Cc1ccc2c(c1)sc1nc(=O)n(-c3ccc(Cl)cc3)c(=O)n12 4.21%
COc1ccc(N2CCN(CCCNC(=O)C3COc4ccc(OC)cc4C3)CC2)cc1 (stereo not given) -1.65%
COc1ccc2c(CNCc3ccc(Cl)cc3)c(C(=O)O)n(Cc3ccccc3C)c2c1 2.21%
CCc1cccc2c(-c3ccccc3)nc(SCC(=O)Nc3ccccc3)nc12 -0.847%
Cc1cccc(Nc2nnc(-n3nc(C)cc3C)c3ccccc23)c1 -0.0597%
O=C(Cn1cc(SCc2ccc(C(F)(F)F)cc2)c2ccccc21)N1CCCCC1 -18.8%
CC(CC(=O)NCc1ccc(Cl)cc1)CC1=NS(=O)(=O)c2ccccc2N1 (stereo not given) -0.706%
COc1cc(NC(=O)c2cc(-c3ccc4c(c3)OCO4)on2)cc(OC)c1OC -18.1%
COc1ccc(-c2cc(C)no2)cc1S(=O)(=O)NCc1ccc(OC(C)C)cc1 1.41%
CC(=O)c1ccc(N2CCN(c3nc4c(S(=O)(=O)c5ccccc5)nnn4c4ccc(Cl)cc34)CC2)cc1 5.27%
COc1ccc(S(=O)(=O)c2cn(C)c3cc(N4CCCCC4)c(F)cc3c2=O)cc1 2.79%
COc1ccc(NC(=O)c2cnn(-c3ccc(C)cc3)c2-n2cccc2)cc1Cl -1.43%
Cc1c(-c2nsc(NC(=O)c3ccc(Cl)cc3)n2)nnn1-c1ccc(C(C)C)cc1 -19.6%
Cc1cc(C)cc(NC(=O)CSc2nccn2-c2ccccc2)c1 -4.56%
O=C(NC1CC(=O)N(c2ccccc2)C1)C1CCCCC1 (stereo not given) -0.299%
Cc1cc(Br)ccc1NC(=O)c1cc2c(=O)n(C)c3cc(Cl)ccc3c2s1 -7.25%
Cc1cccc2nc(-c3cccnc3)c(Nc3ccc(C(C)C)cc3)n12 -14%
COc1ccc(NC(=O)C2=C(C)Nc3nc(SCc4ccccc4C)nn3C2c2ccc(Br)cc2)cc1 (stereo not given) -0.0145%
Cc1cccc(NC(=O)C2CCN(S(=O)(=O)c3cccc4nsnc34)CC2)c1C 1.04%
COc1ccc(S(=O)(=O)N2CCC(c3ccncc3)CC2)cc1Cl -12.2%
CN(C(=O)c1cc(-c2ccccc2O)on1)c1ccccc1 -14.5%
CCCCOc1c(Cl)cc(C(=O)N(Cc2ccc(C)o2)C2CCS(=O)(=O)C2)cc1Cl (stereo not given) -4.31%
Cc1cc(C)c2oc(C(=O)N(Cc3ccc(F)cc3)C3CCS(=O)(=O)C3)cc(=O)c2c1 (stereo not given) -1.97%
CSc1ccc(CCNc2ncnc3onc(C)c23)cc1 0.931%
CCOC(=O)c1c(C)oc2ccc(N(C(=O)Oc3ccccc3)S(=O)(=O)c3ccccc3)cc12 3.22%
CCOc1ccc(/C=C(\C#N)c2nc(-c3cc4ccccc4oc3=O)cs2)c(OCC)c1 -3.38%
CCN1CCN(C(c2ccc(OC)cc2)c2c(O)cc(C)n(CCOC)c2=O)CC1 (stereo not given) 2.43%
COc1ccc(C(CNC(=O)COc2ccc(C)cc2)N2CCCCC2)cc1 (stereo not given) -0.708%
CN(C(=O)Cn1c(=O)n(CCCS(=O)(=O)C2CCCCC2)c(=O)c2ccccc21)c1ccccc1 -2.28%
COc1ccc2c(CNCc3ccc(C)o3)c(C(=O)O)n(Cc3ccccc3)c2c1 -3.92%
O=C(Cn1c(=O)oc2ccccc21)NCc1cccc(Cl)c1 -6.27%
CCOc1cc(-c2nc(-c3ccc(-c4ccc(C)cc4)nc3OC)no2)cc(OCC)c1OCC 1.89%
COc1ccc(C2C=C(c3ccccc3)Nc3nc(NC(=O)c4ccc(C)cc4)nn32)cc1 (stereo not given) 3.92%
COc1ccc(Cl)cc1NC(=O)Cn1c2ncccc2c(=O)n1-c1ccc(C)c(C)c1 -6.34%
Cc1cccc(CCNC(=O)c2cc3ccccn3n2)c1 11.2%
Cc1cc(C)cc(N(CC(=O)Nc2cccc(C)c2C)S(=O)(=O)c2c(C)[nH]c(=O)[nH]c2=O)c1 -8.43%
COC(=O)c1ccc(Cl)cc1NC(=O)N1CC(C)Oc2ccccc21 (stereo not given) -11.7%
Cc1ccc(-n2nc3c(=O)n(CC(=O)Nc4ccccc4F)nc(C)c3c2C)c(C)c1 1.94%
CCOC(=O)c1ccc(NC(=O)c2cc3cc(C)ccc3n2C)cc1 -1.34%
Cc1cc(NS(=O)(=O)c2ccc(NC(=O)COc3ccc(Cl)cc3)cc2)nc(C)n1 -6.93%
Cc1ccc(NC(=O)Nc2nnc(N(C)Cc3ccccc3)s2)cc1 -12.1%
COc1ccccc1N1CCN(C(=O)Cn2ncc3c(=O)oc4ccccc4c32)CC1 -6.86%
Cc1cccc(N2CCN(S(=O)(=O)c3ccc4c(c3)CCCN4C(=O)C3CCC3)CC2)c1C -10.5%
O=C(Nc1ccc(C(=O)OCc2cc(=O)n3nc(C4CC4)sc3n2)cc1)c1ccc(F)cc1 2.26%
Cc1nc(N2CCCC2)c2c(C(=O)Nc3cccc(C)c3C)c(C)oc2n1 5.22%
O=C(Nc1cccc(Cl)c1)c1c(NC(=O)C(F)(F)F)sc2c1CCCC2 -9.39%
CC(=O)Nc1cccc(NC(=O)Cn2cnc3c2c(=O)n(C)c(=O)n3C)c1 -10.1%
CCOc1ccccc1N(C)C(=O)Cn1cnc2sc(C)c(S(=O)(=O)N3CCC(C)CC3)c2c1=O 2.31%
COc1ccc(S(=O)(=O)N(CC(=O)NCc2ccccc2OC)c2ccc(C)cc2)cc1 -8.82%
COc1cc(OC)c(NC(=O)COCc2cc(-c3cccs3)on2)cc1Cl -4.04%
CN(C)CCN(Cc1ccco1)S(=O)(=O)c1cc2c(cc1Cl)NC(=O)CO2 8.44%
COc1ccccc1CCNC(=O)CCc1c(C)c2cc3c(C)coc3c(C)c2oc1=O 4.55%
Cc1cn2c(=O)cc(COc3ccc(NC(=O)c4cccc(F)c4)cc3)nc2s1 -5.16%
Cc1nn(CCCC(=O)Nc2ccccc2C(F)(F)F)c(=O)c2c1sc1ccccc12 -15%
COc1cccc(NC(=O)Nc2cc(-c3cn4cccnc4n3)ccc2C)c1 3.99%
Cn1c(=O)n(C)c2cc(NS(=O)(=O)c3ccccc3)c(NCc3ccccc3)cc21 -16.3%
O=C(NCCO)C(=O)Nc1c2c(nn1-c1ccc(F)cc1)CSC2 0.373%
CC(C)Oc1ccc(CNC(=O)C2CCN(C(=O)c3sccc3-n3cccc3)CC2)cc1 -5.27%
Cc1ccc(-c2noc(CNC(=O)c3ccc(C(C)(C)C)cc3)n2)cc1 -5.69%
COc1ccccc1CNC(=O)CN1C(=O)CSc2ccc(S(=O)(=O)N3CCCC3)cc21 -4.01%
CC(C)OCCCN(Cc1ccco1)C(=O)c1cc2c(s1)-c1ccccc1OC2 -1.51%
CCN(CC)C(=O)Cn1cc(SCC(=O)Nc2cccc(C)c2)c2ccccc21 0.203%
COCc1cc(C)n(CC(=O)Nc2ccc(NC(C)=O)cc2)c(=O)c1C#N -0.324%
COc1ccccc1-c1noc(-c2ccc(N3CCN(c4ccccc4)CC3)c([N+](=O)[O-])c2)n1 -0.0962%
COc1ccc(N2CCN(c3cc(C)nc4nc(-c5ccc(C)cc5)nn34)CC2)cc1 -8.25%
CC1=C(C#N)C(NC(=O)c2cccc(Cl)c2)(C(F)(F)F)C(=O)N1 (stereo not given) 6.63%
Cc1ccc(Cl)cc1NC(=O)N1CCN(C)c2ncccc21 0.0134%
Cc1cccc(C(=O)N2CCc3cc(CNC(=O)CCc4ccccc4)ccc32)c1 -1.8%
O=C(CSc1ncc2c(n1)-c1ccccc1N(Cc1ccc(F)cc1)S2(=O)=O)c1ccc(Cl)cc1 -0.254%
CCc1cc2c(cc3c(=O)n(CC(=O)N4CCN(c5cc(Cl)ccc5C)CC4)ncn32)s1 -0.119%
CCOCCOC(=O)c1ccc(NC(=O)/C=C/c2ccc(OC)c(OC)c2)cc1 17.8%
Cc1ccc(S(=O)(=O)c2cn(C)c3cc(N4CCN(C)CC4)c(F)cc3c2=O)cc1 -0.834%
Cc1cccc(C)c1-n1ncc(C(=O)Nc2ccc3c(c2)OCCO3)c1C1CCN(C(=O)OC(C)(C)C)CC1 7.4%
COc1ccc(Nc2c(-c3cc(Br)ccc3O)nc3ncccn23)cc1OC 0.408%
COc1ccccc1C(=O)Nc1cc2c(cc1N1CCCCC1)n(C)c(=O)n2C 7.22%
Cc1ccc(NCc2cccn2-c2nnc(N3CCC(C(=O)NCc4ccc(OC(C)C)cc4)CC3)s2)cc1 -4.48%
CNS(=O)(=O)c1ccc(OC)c(-c2nnc3c4ccccc4c(C)nn23)c1 -2.43%
COc1ccccc1N1CCN(S(=O)(=O)c2c(C)sc3ncn(CC(=O)N(C)c4ccc(C(C)C)cc4)c(=O)c23)CC1 -9.49%
O=c1cc(CN2CCN(S(=O)(=O)c3ccc(Cl)cc3)CC2)nc2sc(-c3ccccc3F)nn12 2.22%
O=S(=O)(NCCc1ccccc1)c1ccc(N2CCCCS2(=O)=O)cc1 0%
CCOc1ccc(NS(=O)(=O)c2ccc3[nH]cc(C(=O)NCc4ccco4)c(=O)c3c2)cc1 -1.18%
Cc1cccc(NC(=O)c2sc3nc4n(c(=O)c3c2C)N=C(c2ccc(F)cc2)CS4)c1C 0.398%
Cc1ccc(C)c(N2CCN(c3nc4ccccc4c4nc(CCn5nc(C)cc5C)nn34)CC2)c1 -9.37%
COc1ccc(C(=O)O)cc1Nc1nc2ccc(C)cc2n2cnnc12 -4.97%
O=C(CSc1nc(-c2ccc(Cl)cc2)nc2c1Cc1ccccc1O2)N1CCCCC1 1.09%
Cc1ccc(N2C(=O)CS(=O)(=O)C23C(=O)N(Cc2cccc(F)c2)c2ccccc23)cc1Cl (stereo not given) -18.4%
COc1ccc(Cl)cc1NC(=O)c1cc2nc(-c3ccc4c(c3)OCO4)cc(C(F)(F)F)n2n1 -0.128%
COC(=O)Cn1c(=O)c2c(nc3n2CCN3c2cccc(C)c2)n(C)c1=O 12.7%
CCCCc1ccc(NC(=O)c2cc3c(=O)n4ccccc4nc3n2C)cc1 -3.22%
COc1ccc(NC(=O)CCCc2nc(-c3ccco3)no2)c(OC)c1 -11.4%

From PubChem BioAssay AID493208 (National Center for Advancing Translational Sciences (NCATS), 2011)
